# Reference: PubChem BioAssay AID686971 (National Center for Advancing Translational Sciences (NCATS), 2013)
# In all, about 360,000 compounds went through this assay and about 7,500 (2.1%) were called active. Inconclusive results, whose numbers are uncertain, are shown with a selection of clear calls. Calls come from the whole dose curve; as a rule, active = well fitted cell-killing curve with a large enough effect; inconclusive = small, poorly fitted or top-dose-only effect, or effect the other way, or another doubt; inactive = no such curve, though single readings can be large or run the other way. No potency is given beside an inconclusive call; the fits are too rough.
# Test: qHTS for induction of synthetic lethality in tumor cells producing 2HG: qHTS for the HT-1080-IDH1KD cell line;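 for activity, negative = toxicity: 0% = DMSO wells and -100% = cell-free medium wells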
# Details: HT-1080 IDH1 knockdown viability, ATP luminescence, 48 h; activity, negative = toxicity: at 46.1 µM (top of the series) unless noted
# Procedure, shortened: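 Assay cells: HT-1080 with IDH1 knockdown, 750 per well, RPMI/5% FBS. Exposure: 48 h at 37 °C following 2 h pre-incubation. Read: CellTiter-Glo luminescence; fitted concentration-response, curve class assigned.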
# Potency is the fitted concentration of half-maximal effect; tags give direction and shape of the fitted curve.
SMILES,"activity, negative = toxicity",Potency
S=c1[nH]nc(-c2ccncc2)n1/N=C/c1cccc(Cl)c1,inactive: 3.52%,–
CCOC(=O)c1c(NC(C)=O)sc2c(OC)c(Br)ccc12,inactive: 0.951%,–
COc1ccc(OCCNc2cc(N3CCOCC3)ccc2[N+](=O)[O-])cc1,–,"inconclusive [cytotoxic, single point]"
CCc1ccc2nc(N(CCCN(C)C)C(=O)c3ccc(S(=O)(=O)N4CCc5ccccc5C4)cc3)sc2c1,–,active: 13 µM
Cc1csc2nc(CNS(=O)(=O)c3ccc4c(c3)CCCC4)cn12,inactive: 6.99%,–
COC(=O)C(=Cc1ccccc1[N+](=O)[O-])C(=O)OC,inactive: 0%,–
COc1ccccc1NS(=O)(=O)c1cccc(-n2c(O)c(C=Nc3ccccc3C(=O)O)c3ccccc3c2=O)c1,–,"inconclusive [cytotoxic, full curve]"
O=C1c2c(-c3ccc(Br)cc3)noc2CCN1Cc1cn(C2CCCC2)nn1,–,"inconclusive [cytotoxic, single point]"
CCCCc1c(-c2ccccc2OC)ncn1Cc1cccc(-c2ccccc2)c1,–,"inconclusive [cytotoxic, single point]"
Cn1ccnc1SCC(=O)NC1CCCC1,inconclusive: -38.4% [cytotoxic],–
CC1=CC(C)(C)N=C(Nc2ccc(C)cc2)S1,–,"inconclusive [cytotoxic, single point]"
COc1cccc(-c2csc(N3CCN(CC(=O)NNC(=O)c4ccc(Cl)cc4)CC3)n2)c1,–,active: 11.2 µM
CC(C)c1ccc(NC(=O)Nc2nc(C(C)N)cs2)cc1 (stereo not given),–,active: 20.6 µM
CCOC(=O)c1ccccc1NC1c2ccccc2C(=O)N1c1cc(C)ccn1 (stereo not given),inactive: -8.5%,–
CC(C)(C)N1C(=O)c2ccc(C(=O)Nc3ccc(O)cc3)cc2C1=O,–,"inconclusive [cytotoxic, partial curve]"
C=CCOC(=O)c1sc(NC(=O)c2ccco2)nc1C,–,"inconclusive [cytotoxic, partial curve]"
COc1ccc(S(=O)(=O)Nc2ccc(N3CCOCC3)cc2)cc1,inactive: -3.63%,–
COC(=O)[C@]12CCCCC=C1N(Cc1ccccc1)C(=O)[C@H](CC(=O)NCc1cccc(C(F)(F)F)c1)C2,–,"inconclusive [cytotoxic, single point]"
Cc1cc(-c2ccc(C)c(S(=O)(=O)NCC3CCN(Cc4ccccc4F)CC3)c2)on1,inactive: -22.5%,–
CC(C)C(C)NC(=O)CN1C(=O)NC2(CCCc3ccccc32)C1=O (stereo not given),–,"inconclusive [rising, partial curve, poor fit]"
COc1ccc(-c2cc(-c3ccccc3)c(C#N)c(S(C)=O)n2)cc1 (stereo not given),–,"inconclusive [cytotoxic, single point]"
Cc1ccc(NC(=O)CSc2nc3ccccc3c(=O)n2CCCN2CCCCC2)cc1Cl,–,"inconclusive [cytotoxic, single point]"
CCN1CCCC1CN(Cc1cc2c(C)cc(C)cc2[nH]c1=O)C(=O)NC1CCCCC1 (stereo not given),–,"inconclusive [cytotoxic, single point]"

SMILES,"activity, negative = toxicity",Potency
N#CC1=C(N)Oc2nc[nH]c(=O)c2C1c1cccs1 (stereo not given),–,"inconclusive [rising, partial curve]"
C/C(=N/NC(=O)COc1ccc(C(C)(C)C)cc1)c1ccc(N2CCOCC2)cc1,–,"inconclusive [cytotoxic, single point]"
OCCN1CCN(C2Cc3cc(Cl)ccc3Sc3ccc(Cl)cc32)CC1 (stereo not given) (tested in a mixture with another compound),–,"inconclusive [cytotoxic, single point]"
O=C(Nc1ccccc1C(=O)N/N=C/c1ccco1)c1ccc(F)cc1,–,"inconclusive [cytotoxic, single point]"
O=[N+]([O-])c1ccc(Nc2ccc(Cl)cc2)nc1,–,"inconclusive [cytotoxic, single point]"
O=C1NC(=S)/C(=C\c2ccc(-c3ccccc3Cl)o2)S1,–,"inconclusive [cytotoxic, partial curve]"
O=C1NC(c2ccc(O)cc2)Nc2ccccc21 (stereo not given),–,"inconclusive [cytotoxic, single point]"
COc1cc(C#Cc2c(-c3cncn3C)n(C)c3ccc(-c4ccc(CN5CCOCC5)cc4)cc23)cc(OC)c1,–,"inconclusive [cytotoxic, single point]"
O=C(Oc1ccc[nH]c1=O)c1ccc(F)cc1,–,"inconclusive [cytotoxic, partial curve]"
CCN(CC(=O)Nc1ccc(OC)cc1)C(=O)Cc1ccc(OC)c(S(=O)(=O)N2CCOCC2)c1,inactive: -0.0764%,–
Cc1ccc(C(=O)C2COC(=O)C2)cc1 (stereo not given),–,"inconclusive [cytotoxic, single point]"
CC[C@@H]1Cc2cc(O)ccc2C2=C1c1ccc(O)cc1C[C@H]2CC,–,active: 14.6 µM
COc1ccc(NC(=O)C2(C)CCN2C(=O)C(C)C)cc1F (stereo not given),–,"inconclusive [rising, partial curve]"
Cc1ccc(C(=O)C(C)OC(=O)c2cc3cc([N+](=O)[O-])ccc3oc2=O)cc1 (stereo not given),–,active: 11.2 µM
CCN(CC)S(=O)(=O)c1ccc(N2CCN(S(=O)(=O)c3ccc4c(c3)OCCO4)CC2)nc1,inactive: -22.4%,–
O=C(C[C@H]1C[C@H]2c3cc(NS(=O)(=O)c4ccc(F)cc4)ccc3O[C@H]2[C@H](CO)O1)NCc1cc(F)ccc1F,inactive: 1.04%,–
Cc1nnc(SCC(=O)NCC(=O)Nc2ccc(F)c(F)c2F)n1Cc1ccccc1,inactive: 0.959%,–
Cc1ccc(-c2ccc(CN3C(C(C)C)C(=O)N(Cc4cn(CCC5OCCO5)nn4)CCS3(=O)=O)cc2)c(C)c1 (stereo not given),–,active: 23.1 µM
Cc1ccc(OCC(=O)Nn2c(C)nc3ccccc3c2=O)c(C(C)C)c1,inactive: -11.5%,–
C=CCn1c(C)cc(C(=O)CN2NS(=O)(=O)c3ccccc3C2=O)c1C,–,active: 18.4 µM
O=C(C[n+]1cc(Br)cc2ccccc21)c1ccc(Cl)cc1,inconclusive: -33% [cytotoxic],–
Cc1cccc(N(C(=O)c2snc(C(N)=O)c2N)C(C(=O)NCC2CCCO2)c2c[nH]c3ccccc23)c1 (stereo not given),inactive: -9.94%,–
